# Reference: PubChem BioAssay (Tox21)
# The source made the active and inactive calls. Entries that show only a call come without a potency. Unless noted, the call rests on the fitted dose curve; in most records, active means well fitted curve in the direction sought with a large enough effect in the repeat runs; inconclusive means weak or mixed curves; inactive means no such curve, though single readings can be large; an effect the other way counts as inactive or inconclusive.
# What was measured:
# Aromatase (Homo sapiens) = Aromatase (Homo sapiens) (UniProt P11511); assay: qHTS assay to identify aromatase inhibitors (AID 743083); further: nearly all actives have a fitted effect of over 55% in size; further: potency means the concentration at half of the fitted maximal effect
# UniProt P11511, sequence (P11511 whole entry, looked up): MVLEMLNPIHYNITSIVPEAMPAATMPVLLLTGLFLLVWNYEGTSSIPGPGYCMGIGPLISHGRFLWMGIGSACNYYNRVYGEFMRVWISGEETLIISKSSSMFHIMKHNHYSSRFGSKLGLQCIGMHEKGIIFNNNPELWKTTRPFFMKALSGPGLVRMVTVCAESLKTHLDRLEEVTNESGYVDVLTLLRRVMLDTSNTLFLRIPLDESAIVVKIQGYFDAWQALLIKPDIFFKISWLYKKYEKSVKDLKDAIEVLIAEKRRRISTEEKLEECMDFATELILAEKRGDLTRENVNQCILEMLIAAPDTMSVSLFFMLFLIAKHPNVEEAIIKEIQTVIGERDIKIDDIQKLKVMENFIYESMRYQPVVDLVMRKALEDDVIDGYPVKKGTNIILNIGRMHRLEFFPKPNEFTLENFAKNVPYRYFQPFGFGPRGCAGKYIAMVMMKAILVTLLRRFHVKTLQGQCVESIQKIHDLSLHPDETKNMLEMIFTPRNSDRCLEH
# [1] = target: Aryl hydrocarbon receptor (Homo sapiens) (UniProt P35869); assay: qHTS assay to identify small molecule that activate the aryl hydrocarbon receptor (AhR) signaling pathway (AID 743085); further: nearly all actives have a fitted effect of over 15% in size; further: potency means the concentration at half of the fitted maximal effect;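 on activation: HG2L7.5c1 human HepG2 liver cells with stably integrated DRE-driven firefly reporter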
# UniProt P35869, sequence (P35869 whole entry, looked up): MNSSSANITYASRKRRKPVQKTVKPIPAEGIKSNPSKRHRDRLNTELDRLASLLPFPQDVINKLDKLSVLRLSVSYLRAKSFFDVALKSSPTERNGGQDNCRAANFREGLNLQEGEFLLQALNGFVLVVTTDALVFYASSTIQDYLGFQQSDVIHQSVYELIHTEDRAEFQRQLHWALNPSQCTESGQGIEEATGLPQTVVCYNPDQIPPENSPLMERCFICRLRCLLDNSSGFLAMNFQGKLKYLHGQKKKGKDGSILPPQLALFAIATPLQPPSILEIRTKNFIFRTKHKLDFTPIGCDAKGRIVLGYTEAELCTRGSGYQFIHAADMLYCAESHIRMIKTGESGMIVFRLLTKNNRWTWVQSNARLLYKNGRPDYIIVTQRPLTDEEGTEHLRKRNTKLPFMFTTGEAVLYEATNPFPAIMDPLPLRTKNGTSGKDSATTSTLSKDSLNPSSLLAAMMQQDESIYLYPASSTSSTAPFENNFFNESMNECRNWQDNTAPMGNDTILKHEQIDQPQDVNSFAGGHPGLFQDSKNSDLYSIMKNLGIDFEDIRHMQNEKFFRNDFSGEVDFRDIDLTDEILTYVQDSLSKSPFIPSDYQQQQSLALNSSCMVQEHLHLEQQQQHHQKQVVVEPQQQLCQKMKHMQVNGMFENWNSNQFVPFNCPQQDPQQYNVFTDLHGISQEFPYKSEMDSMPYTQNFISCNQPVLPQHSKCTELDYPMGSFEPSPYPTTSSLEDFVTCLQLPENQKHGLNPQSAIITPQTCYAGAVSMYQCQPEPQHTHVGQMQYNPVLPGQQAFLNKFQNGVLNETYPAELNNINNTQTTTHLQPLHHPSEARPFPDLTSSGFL
# In short: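 Stably transfected human liver carcinoma cells (HG2L7.5c1; 20 DRE-firefly luciferase) were incubated 5 h, dosed, and kept 24 h at 37C. Agonism was scored from increased luciferase luminescence.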
# [2] = target: Progesterone receptor (Homo sapiens) (UniProt P06401); assay: qHTS assay to identify small molecule agonists of the progesterone receptor (PR) signaling pathway (AID 1346784; calls by dose curve; further: nearly all actives have a fitted effect of over 30% in size; further: potency means the concentration at half of the fitted maximal effect); conditions: PR-UAS-bla HEK293T, beta-lactamase FRET ratio, 16 h; activation: at 92.4 µM (top of the series) unless noted
# UniProt P06401, sequence (P06401 whole entry, looked up): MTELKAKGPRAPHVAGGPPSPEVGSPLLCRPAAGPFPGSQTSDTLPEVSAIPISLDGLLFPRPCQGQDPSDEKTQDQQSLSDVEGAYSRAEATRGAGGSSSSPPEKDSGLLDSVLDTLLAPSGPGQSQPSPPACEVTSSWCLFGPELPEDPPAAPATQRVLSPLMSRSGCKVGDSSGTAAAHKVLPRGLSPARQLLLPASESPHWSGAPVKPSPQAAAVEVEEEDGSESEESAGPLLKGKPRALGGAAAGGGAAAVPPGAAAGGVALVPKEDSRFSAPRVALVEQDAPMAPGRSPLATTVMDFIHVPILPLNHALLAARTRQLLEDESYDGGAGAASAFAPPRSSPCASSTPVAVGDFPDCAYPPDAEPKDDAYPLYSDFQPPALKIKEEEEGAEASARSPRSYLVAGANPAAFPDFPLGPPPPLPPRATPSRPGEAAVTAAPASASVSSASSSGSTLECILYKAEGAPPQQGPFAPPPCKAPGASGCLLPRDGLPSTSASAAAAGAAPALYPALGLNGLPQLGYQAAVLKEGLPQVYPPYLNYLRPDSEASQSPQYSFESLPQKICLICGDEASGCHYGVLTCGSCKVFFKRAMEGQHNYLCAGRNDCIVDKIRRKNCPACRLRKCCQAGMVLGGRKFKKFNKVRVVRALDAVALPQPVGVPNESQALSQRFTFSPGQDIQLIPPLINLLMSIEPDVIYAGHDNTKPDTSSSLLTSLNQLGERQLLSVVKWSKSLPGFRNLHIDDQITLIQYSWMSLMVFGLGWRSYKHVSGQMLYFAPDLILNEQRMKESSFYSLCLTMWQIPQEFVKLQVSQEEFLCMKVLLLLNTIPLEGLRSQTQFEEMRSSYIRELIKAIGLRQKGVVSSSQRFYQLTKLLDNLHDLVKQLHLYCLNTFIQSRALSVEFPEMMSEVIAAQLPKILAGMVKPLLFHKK
# In short: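 Reporter assay, GripTite PR-UAS-bla HEK 293T cells: 16 hr exposure to DMSO-dissolved compounds at 37C, 5% CO2, in steroid-depleted (2% charcoal-stripped FBS) medium; beta-lactamase measured by FRET fluorescence.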
# [3] = qHTS assay to identify small molecule agonists of the vitamin D receptor (VDR) signaling pathway - cell viability counter screen (AID 743224); further: nearly all actives have a fitted effect of over 50% in size; further: potency means the concentration at half of the fitted maximal effect
# In short: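 VDR-bla cells were preincubated 4 h at 37C/5% CO2, then exposed to compounds for 16 h. After the 2 h room-temperature bla FRET read, CellTiter-Glo was added to the same wells and luminescence read after 30 min.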
# [4] = qHTS assay to identify small molecule antagonists of the androgen receptor (AR) signaling pathway using the MDA cell line in the presence of 0.5 nM R1881 - cell viability counter screen (AID 1259242); further: nearly all actives have a fitted effect of over 45% in size
# In short: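 MDA-kb2 cells (human breast carcinoma, stably carrying MMTV-luciferase reporter) were exposed to compounds with 0.5 nM R1881 (final) for 16 hr at 37C, 0% CO2; viability then read as live-cell protease fluorescence (CellTiter-Fluor, 30 min) in the same wells.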
# [5] = qHTS assay for small molecule disruptors of the mitochondrial membrane potential - cell viability (AID 720634; calls by dose curve; further: nearly all actives have a fitted effect of over 20% in size; further: potency means the concentration at half of the fitted maximal effect;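 on activity change, negative = cytotoxicity: human HepG2 liver cancer cells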)
# In short: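 HepG2 cells seeded overnight at 37 C, then exposed to compound or DMSO for 1 hr at 37 C, 5% CO2. m-MPI dye added, then CellTiter-Glo for 30 min at room temperature; viability read as ATP luminescence.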
# [6] = target: Glucocorticoid receptor (Homo sapiens) (UniProt P04150); assay: qHTS assay to identify small molecule agonists of the glucocorticoid receptor (GR) signaling pathway (AID 720691; active means well fitted activation curve with a large enough effect in the signal ratio in the repeat runs, not every such curve was filed as active; inconclusive means weak or mixed curves, or effect the other way; inactive means no such curve, though single readings can be large or run the other way; the % refers to the signal ratio; further: potency means the concentration at half of the fitted maximal effect); conditions: GR-bla HeLa, beta-lactamase reporter ratio, 18 h; activation: at 62.4 µM (top of the series) unless noted
# UniProt P04150, sequence (P04150 whole entry, looked up): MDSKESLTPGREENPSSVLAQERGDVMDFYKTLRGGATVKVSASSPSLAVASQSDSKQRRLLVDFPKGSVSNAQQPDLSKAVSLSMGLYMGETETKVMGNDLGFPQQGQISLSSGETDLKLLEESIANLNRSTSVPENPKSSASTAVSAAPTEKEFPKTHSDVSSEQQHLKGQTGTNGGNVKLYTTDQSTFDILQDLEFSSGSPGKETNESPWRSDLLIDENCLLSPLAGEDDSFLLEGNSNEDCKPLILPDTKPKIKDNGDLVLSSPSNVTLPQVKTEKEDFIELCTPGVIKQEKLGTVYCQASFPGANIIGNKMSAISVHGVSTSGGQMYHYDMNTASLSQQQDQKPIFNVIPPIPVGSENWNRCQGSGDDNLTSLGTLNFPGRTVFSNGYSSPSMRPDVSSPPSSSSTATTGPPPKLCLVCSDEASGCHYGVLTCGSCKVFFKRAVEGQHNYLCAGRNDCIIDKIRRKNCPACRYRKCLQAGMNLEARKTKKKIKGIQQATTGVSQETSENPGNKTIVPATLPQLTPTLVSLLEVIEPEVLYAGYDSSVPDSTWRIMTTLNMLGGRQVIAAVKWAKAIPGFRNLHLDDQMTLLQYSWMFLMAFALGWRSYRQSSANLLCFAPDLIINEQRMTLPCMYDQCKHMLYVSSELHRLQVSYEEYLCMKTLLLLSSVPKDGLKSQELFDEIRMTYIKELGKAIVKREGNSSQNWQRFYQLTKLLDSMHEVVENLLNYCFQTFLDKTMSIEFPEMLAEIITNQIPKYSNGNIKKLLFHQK
# In short: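 GR-bla HeLa cells (beta-lactamase reporter under glucocorticoid response element) were plated 4 h at 37 C/5% CO2, given compounds in DMSO, and incubated 18 h at 37 C. LiveBLAzer B/G FRET substrate was added for 2 h at room temperature, then fluorescence intensity read.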
# [7] = target: Androgen receptor (Homo sapiens) (UniProt P10275); assay: qHTS assay to identify small molecule antagonists of the androgen receptor (AR) signaling pathway using the MDA cell line (AID 743042; further: nearly all actives have a fitted effect of over 55% in size; further: potency means the concentration at half of the fitted maximal effect)
# UniProt P10275, sequence (P10275 whole entry, looked up): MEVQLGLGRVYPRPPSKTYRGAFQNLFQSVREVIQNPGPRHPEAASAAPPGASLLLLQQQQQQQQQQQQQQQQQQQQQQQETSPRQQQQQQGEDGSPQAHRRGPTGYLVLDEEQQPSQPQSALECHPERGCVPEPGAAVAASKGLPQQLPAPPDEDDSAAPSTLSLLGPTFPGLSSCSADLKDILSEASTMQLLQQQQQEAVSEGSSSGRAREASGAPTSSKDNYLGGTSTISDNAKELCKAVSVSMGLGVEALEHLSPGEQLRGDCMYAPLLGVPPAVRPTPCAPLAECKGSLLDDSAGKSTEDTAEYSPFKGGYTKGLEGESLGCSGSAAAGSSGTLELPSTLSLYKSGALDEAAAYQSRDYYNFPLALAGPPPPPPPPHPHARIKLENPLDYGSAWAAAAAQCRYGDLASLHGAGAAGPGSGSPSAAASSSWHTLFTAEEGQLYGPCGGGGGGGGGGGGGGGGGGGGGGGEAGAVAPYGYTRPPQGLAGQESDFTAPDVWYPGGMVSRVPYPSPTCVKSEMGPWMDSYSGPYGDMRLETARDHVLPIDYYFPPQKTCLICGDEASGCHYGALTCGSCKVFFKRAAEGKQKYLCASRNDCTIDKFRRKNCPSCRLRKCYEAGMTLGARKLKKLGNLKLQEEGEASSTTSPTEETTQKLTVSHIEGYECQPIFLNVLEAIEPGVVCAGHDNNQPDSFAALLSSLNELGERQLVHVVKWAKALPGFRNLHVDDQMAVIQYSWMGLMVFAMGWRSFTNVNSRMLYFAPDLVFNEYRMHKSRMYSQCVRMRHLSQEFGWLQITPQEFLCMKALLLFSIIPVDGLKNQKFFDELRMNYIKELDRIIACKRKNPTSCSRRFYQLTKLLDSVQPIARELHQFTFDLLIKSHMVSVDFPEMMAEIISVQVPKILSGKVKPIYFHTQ
# In short: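 MDA-kb2 cells (human breast carcinoma, stably carrying an MMTV-luciferase reporter responsive to AR and GR) were plated at 3,000 cells/well and preincubated 5 hr at 37C, then given compound plus R1881 agonist for 16 h. ONE-Glo luminescence was read.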
# [8] = qHTS assay to identify small molecule antagonists of the glucocorticoid receptor (GR) signaling pathway - cell viability counter screen (AID 720693); conditions: GR-bla HeLa viability, CellTiter-Glo luminescence, 18 h, with 5 nM dexamethasone present; viability change, negative = cytotoxic: at 58.5 µM (top of the series) unless noted; further: nearly all actives have a fitted effect of over 55% in size; further: potency means the concentration at half of the fitted maximal effect
# [9] = target: Estrogen receptor beta (Homo sapiens) (UniProt Q92731); assay: qHTS assay to identify small molecule agonists of the estrogen receptor beta (ER-beta) signaling pathway (AID 1259377; active means well fitted activation curve with a large enough effect in the signal ratio in the repeat runs, not every such curve was filed as active; inconclusive means weak or mixed curves, or effect the other way; the % refers to the signal ratio); conditions: ER-beta-UAS-bla HEK293T, beta-lactamase FRET ratio, 16 h; activation: at 92.4 µM (top of the series) unless noted
# UniProt Q92731, sequence (Q92731 whole entry, looked up): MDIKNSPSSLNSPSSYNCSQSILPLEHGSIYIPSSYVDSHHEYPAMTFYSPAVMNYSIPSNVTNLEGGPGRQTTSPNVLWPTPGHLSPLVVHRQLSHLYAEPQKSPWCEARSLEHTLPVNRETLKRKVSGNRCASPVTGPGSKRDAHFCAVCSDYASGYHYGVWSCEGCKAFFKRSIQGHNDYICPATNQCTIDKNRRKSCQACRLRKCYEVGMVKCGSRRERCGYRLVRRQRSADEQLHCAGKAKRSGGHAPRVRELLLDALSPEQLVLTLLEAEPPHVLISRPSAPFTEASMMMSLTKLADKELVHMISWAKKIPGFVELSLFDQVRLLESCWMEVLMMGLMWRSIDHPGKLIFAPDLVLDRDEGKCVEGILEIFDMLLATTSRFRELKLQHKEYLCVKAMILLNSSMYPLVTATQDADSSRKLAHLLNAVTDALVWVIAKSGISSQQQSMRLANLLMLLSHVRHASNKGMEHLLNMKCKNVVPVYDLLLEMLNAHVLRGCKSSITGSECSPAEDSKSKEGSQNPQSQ
# In short: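 Reporter cells (HEK293T, ER-beta-UAS-bla) receive compounds or DMSO after a 6 hr pre-incubation. They then incubate 16 hr at 37C/5% CO2, and fluorescence from LiveBLAzer B/G substrate is measured after 2 hours at room temperature.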
# [10] = qHTS RealTime-Glo MT Cell Viability Assay in HEK293 cells - 8 hour (AID 1224887); further: top concentration of the series differs between compounds; nearly all actives have a fitted effect of over 50% in size
# In short: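 HEK293 cells mixed with RealTime-Glo reagents (NanoLuc plus cell-permeant prosubstrate) at 600 cells/well, preincubated 5 h at 37 C/5% CO2, then given 23 nL compound in DMSO. Nonlytic luminescence from viable cells was read at 0, 8, 16, 24, 32 and 40 h.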
# [11] = A CellTox Green Cytotoxicity Assay to monitor cytotoxicity in HepG2 cells - 16 hour (AID 1224876); further: nearly all actives have a fitted effect of over 45% in size
# In short: (§1)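 HepG2 cells were seeded together with the CellTox Green dye at 600 cells/well, left 5 h at 37 C/5% CO2, then given compounds in DMSO. Fluorescence from dye bound to dead-cell DNA was read repeatedly over 40 h of treatment at 37 C.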
# [12] = qHTS assay to identify small molecule agonists of the peroxisome proliferator-activated receptor delta (PPARd) signaling pathway - cell viability counter screen (AID 743211); conditions: PPARd-bla HEK293H viability, CellTiter-Glo luminescence, 17 h; activity change, negative = cytotoxicity: at 62.6 µM (top of the series); further: nearly all actives have a fitted effect of over 55% in size; further: potency means the concentration at half of the fitted maximal effect
# In short: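 In the same wells used for beta-lactamase reporter measurement, cytotoxicity is scored by CellTiter-Glo. HEK293H PPARd-bla cells receive compound for 17 h at 37C following a 5 h settling period.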
# [13] = qHTS assay for small molecule activators of the heat shock response signaling pathway - cell viability counter screen (AID 743209); conditions: HSE-bla HeLa viability, CellTiter-Glo luminescence, 5 h; activity change, negative = cytotoxicity: at 62.6 µM (top of the series); further: potency means the concentration at half of the fitted maximal effect; nearly all actives have a fitted effect of over 50% in size
# In short: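 CellSensor HSE-bla HeLa cells, plated overnight at 37 C/5% CO2, were exposed to compounds in DMSO for 5 h at 37 C. Viability was then read in the same wells by CellTiter-Glo luminescence after 30 min at room temperature.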
# [14] = A CellTox Green Cytotoxicity Assay to monitor cytotoxicity in HepG2 cells - 24 hour (AID 1224878); further: nearly all actives have a fitted effect of over 45% in size
# In short: as §1
# [15] = qHTS assay to identify small molecule agonists of the androgen receptor (AR) signaling pathway in the presence of an antagonist - cell viability counter screen (AID 1259379); further: nearly all actives have a fitted effect of over 25% in size
# In short: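 MDA-kb2 human breast carcinoma cells (stable MMTV-luciferase, AR/GR responsive) were seeded 3,000 cells/well, pre-incubated 5 hr at 37C without CO2, then given 3.0uM nilutamide and compounds at 15 concentrations for 16 hr. Viability was read by CellTiter-Fluor fluorescence.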
# [16] = qHTS assay to identify small molecule agonists of the TGF-beta/Smad signaling pathway (AID 1346859; active means well fitted activation curve with a large enough effect in the signal ratio in the repeat runs, not every such curve was filed as active; inconclusive means weak or mixed curves; the % refers to the signal ratio)
# In short: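 Screening used HEK 293T SBE-bla cells at 4,000/well. Test agents: 5 hr, 37 C. Detection: FRET substrate, 2 hr RT, then excitation 405 nm with emissions at 460 and 530 nm.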
# Tags describe the fitted curve by direction and shape or compound fluorescence and quenching.
smiles,measurement,setting,value
OC(Cn1cncn1)(c1ccc(F)cc1)c1ccccc1F (configuration not stated),Potency,Aromatase (Homo sapiens),"inconclusive: 48.6 µM [inhibitor, partial curve]"
same,Potency,[1],inactive
same,Potency,[2],inactive
CCC(C)C(C)(COC(N)=O)COC(N)=O (configuration not stated),Potency,[3],inactive
same,Potency,[4],inactive
CN1C(=O)CN=C(c2ccccc2)c2cc([N+](=O)[O-])ccc21,Potency,[5],"inconclusive: 33.5 µM [cytotoxic, partial curve, poor fit]"
same,Potency,[6],active: 0.338 µM [inconclusive]
same,Potency,[7],inactive
F/C(COc1ccc2c(c1)[nH]c1ccccc12)=C1/CN2CCC1CC2,Potency,Aromatase (Homo sapiens),"inconclusive: 33.5 µM [inhibitor, single point]"
CC(=O)O[C@H]1C[C@H](O[C@H]2[C@@H](O)C[C@H](O[C@H]3[C@@H](O)C[C@H](O[C@H]4CC[C@@]5(C)[C@H](CC[C@@H]6[C@@H]5C[C@@H](O)[C@]5(C)[C@@H](C7=CC(=O)OC7)CC[C@]65O)C4)O[C@@H]3C)O[C@@H]2C)O[C@H](C)[C@H]1O[C@@H]1O[C@H](CO)[C@@H](O)[C@H](O)[C@H]1O,Potency,[8],active: 0.674 µM
same,Potency,[7],"inconclusive: 0.841 µM [inhibitor, full curve]"
CN1C2CCC1CC(OC(c1ccccc1)c1ccc(Cl)cc1)C2 (configuration not stated),Potency,[6],"inconclusive: 30.1 µM [cytotoxic, single point]"
same,Potency,[7],"inconclusive: 33.5 µM [inhibitor, single point]"
same,Potency,Aromatase (Homo sapiens),"inconclusive: 33.5 µM [inhibitor, single point]"
C#CCN(C)[C@H](C)Cc1ccccc1,Potency,[9],inactive
C[C@]12CC[C@H]3[C@@H](CCC4=CC(=O)CC[C@@]43C)[C@@H]1CC[C@H]2O,Potency,[6],"inconclusive: 0.535 µM [activator, single point]"
COP(N)(=S)OC,Potency,[10],inactive
CN1CCN=C(c2ccccc2)c2cc(Cl)ccc21,Potency,[1],"inconclusive: 21.1 µM [activator, partial curve]"
CN(CCO)CCO,Potency,[11],inactive
same,Potency,[2],inactive
Cc1nc(N)nc(N)n1,Potency,[11],inactive
c1ccccc1,Potency,[4],inactive
O=S(=O)(O)c1cc(O)ccc1O,Potency,[4],inactive
CC[C@H](N)c1ccccc1,Potency,[6],inactive
same,Potency,[12],"inconclusive: 0.437 µM [cytotoxic, full curve, poor fit]"
same,Potency,[10],inactive
same,Potency,[2],"inconclusive: 3.44 µM [falling, partial curve, poor fit]"
C=CCCC#N,Potency,[13],"inconclusive: 0.269 µM [rising, partial curve]"
same,Potency,[14],inactive
same,Potency,[10],inactive
CC(=O)O[C@H]1C[C@H](O[C@H]2[C@@H](O)C[C@H](O[C@H]3[C@@H](O)C[C@H](OC4CC[C@@]5(C)C(CC[C@@H]6[C@@H]5CC[C@]5(C)[C@@H](C7=CC(=O)OC7)[C@@H](O)C[C@]65O)C4)O[C@@H]3C)O[C@@H]2C)O[C@H](C)[C@H]1O[C@@H]1O[C@H](CO)[C@@H](O)[C@H](O)[C@H]1O (some centres not stated),Potency,[7],"inconclusive: 8.41 µM [inhibitor, partial curve, poor fit]"
O=P(O)(O)c1ccccc1,Potency,[3],inactive
same,Potency,[11],inactive
CO[C@H]1[C@@H](O)C[C@H](O[C@H]2[C@@H](O)C[C@H](O[C@H]3[C@@H](O)C[C@H](O[C@H]4CC[C@@]5(C)[C@H](CC[C@@H]6[C@@H]5C[C@@H](O)[C@]5(C)[C@@H](C7=CC(=O)OC7)CC[C@]65O)C4)O[C@@H]3C)O[C@@H]2C)O[C@@H]1C,Potency,[8],active: 0.756 µM
same,Potency,[7],active: 1.68 µM
CCCCCCCC(=O)Cl,Potency,[15],inactive
C#C[C@]1(OC(=O)CCCCCC)CC[C@H]2[C@@H]3CCC4=CC(=O)CC[C@@H]4[C@H]3CC[C@@]21C,Potency,[6],"inconclusive: 21.3 µM [cytotoxic, partial curve]"
N#C/C=C/c1ccccc1,activation,[2],inconclusive: 0.309%
ClCC(Cl)Cl,Potency,[3],inactive
same,Potency,[15],inactive
same,Potency,[16],inactive
C1=CCC=C1,Potency,[3],inactive
NC(=O)CF,Potency,[10],inactive
CC(C)OC(=O)Cc1ccccc1,Potency,[5],inactive
same,Potency,[16],inactive
CCC(=O)O[C@H]1[C@@H](N2CCCCC2)C[C@H]2[C@@H]3CC[C@H]4C[C@H](OC(C)=O)[C@@H](N5CCCCC5)C[C@]4(C)[C@H]3CC[C@@]21C,Potency,[8],inactive
CC(=O)OCC1=C(C(=O)O)N2C(=O)[C@@H](N)[C@H]2SC1,Potency,[13],"inconclusive: 0.0326 µM [cytotoxic, full curve, poor fit]"
CCN(CC)/[N+]([O-])=N/O,Potency,[5],inactive
O=C(CCl)NCO,Potency,[16],inactive
Cc1cccc([N+](=O)[O-])c1C,Potency,[9],inactive
CNC(=S)S,Potency,[8],inactive
same,Potency,[12],inactive
CN1[C@@H]2CC[C@H]1CC(OC1c3ccccc3CCc3ccccc31)C2 (some centres not stated),Potency,Aromatase (Homo sapiens),inactive
Clc1ccc(C(Cn2ccnc2)OCc2csc3c(Cl)cccc23)c(Cl)c1 (configuration not stated),activation,[6],inconclusive: 7.99% [phenotype inactive] [at 29.2 µM]
same,Potency,[7],"inconclusive: 12.7 µM [inhibitor, single point]"
same,Potency,Aromatase (Homo sapiens),active: 4.03 µM
Oc1cccc[c]1[Hg][Cl],Potency,[6],"inconclusive: 6.01 µM [cytotoxic, full curve]"
same,Potency,[8],active: 5.35 µM
CCOC(=O)c1ncn2c1CN(C)C(=O)c1c(I)cccc1-2,Potency,[1],"inconclusive: 0.266 µM [activator, single point]"
C[C@@H](N)C(=O)c1ccccc1,Potency,[1],"inconclusive: 87.6 µM [activator, partial curve, poor fit]"
c1ccc(C2(N3CCCC3)CCCCC2)cc1,Potency,[8],active: 26.8 µM
C[N+]1(CCC(C(N)=O)(c2ccccc2)c2ccccc2)CCCCC1,Potency,[3],inconclusive: 0.0011 µM
